# Measurements published in PMC10385824, “Antiproliferative and Tubulin-Destabilising Effects of 3-(Prop-1-en-2-yl)azetidin-2-Ones and Related Compounds in MCF-7 and MDA-MB-231 Breast Cancer Cells” (Pharmaceuticals, 2023).
# How the values were obtained:
# [1] = AlamarBlue cell viability in non-tumorigenic cells; type: cell-based; details: human, HEK-293T cells
# Description: HL-60 cells were originally obtained from the ECACC.
# Figure 4 Antiproliferative activity of β-lactam compound 9q in human breast cancer MCF-7 cells and non-tumorigenic human embryonic kidney HEK-293T cells. MCF-7 and HEK-293T cells were grown in 96-well plates and treated with compound 9q at 0.1, 1 and 10 μM for 72 h.
# [2] = tested on: MCF-7 cells; experiment: Cell cycle analysis, propidium iodide flow cytometry; type: cell-based, human; details: for sub-G0G1 (proapoptotic effect): vehicle 6%
# Description: MCF-7 cells were treated with compound 9q (at concentration of 50 nM and 500 nM) and incubated for 72 h. Cells (adherent and detached) were collected, trypsinised and centrifuged (800× g, 15 min). […] Fixed cells were centrifuged (800× g, 15 min) and stained with PI (50 μg/mL) containing DNase-free RNase A (50 μg/mL) at 37 °C for 30 min. The DNA content of the cells (10,000 cells/experimental group) was recorded by flow cytometry at 488 nm using a FACSCalibur flow cytometer (BD Biosciences, San Jose, CA, USA) and analysed using cellQuest software (BD Biosciences, San Jose, CA, USA).
# MCF-7 cells were treated with either vehicle (0.1% ethanol (v/v)) or 9q (50 nM and 500 nM) for 24 h, 48 h and 72 h. The MCF-7 cells were then fixed and stained with propidium iodide, and the distribution was analysed by flow cytometry. Cell cycle analysis was obtained from histograms of gated counts per DNA area (FL2-A). The number of cells with <2N (sub-G1) (A), 2N (G0G1) (B) and 4N (G2/M) (C) DNA content was determined using CellQuest software. The results obtained represent the mean of three independent experiments performed.
# [3] = tested on: MCF-7; details: MCF7; one dose 10 µM, 48 h
smiles,measurement,setting,value
"C=C(C)C1C(=O)N(c2cc(OC)c(OC)c(OC)c2)C1c1ccc(OC)c(O)c1 (stereo not drawn) [9q, 4-(3-Hydroxy-4-methoxyphenyl)-1-(3,4,5-trimethoxyphenyl)-3-(prop-1-en-2-yl)azetidin-2-one]","viability at 72 h, 0.1 µM",[1]; 0.1 μM,83%
same,"viability at 72 h, 1 µM",[1]; 1 μM,60%
same,"viability at 72 h, 10 µM",[1]; 10 μM,50%
same,G0G1 cell population,"[2]; 50 nM, 24 h",10%
same,G0G1 cell population,"[2]; 50 nM, 48 h",10%
same,G0G1 cell population,"[2]; 50 nM, 72 h",8%
same,sub-G0G1 (proapoptotic effect),"[2]; 50 nM, 72 h",10%
same,G0G1 cell population,"[2]; 500 nM, 24 h",7%
same,G2/M population,"[2]; 500 nM, 24 h",85%
same,G0G1 cell population,"[2]; 500 nM, 48 h",7%
same,G2/M population,"[2]; 500 nM, 48 h",81%
same,G0G1 cell population,"[2]; 500 nM, 72 h",8%
same,G2/M population,"[2]; 500 nM, 72 h",70%
same,sub-G0G1 (proapoptotic effect),"[2]; 500 nM, 72 h",19%
same,G2/M population,"[2]; 50 μM (so in the source), 24 h",72%
same,G2/M population,"[2]; 50 μM (so in the source), 48 h",69%
same,G2/M population,"[2]; 50 μM (so in the source), 72 h",70%
same,% Growth,[3],15.44%
